45 compounds from PubChem BioAssay (NCI) can be followed below.

Structures are written as SMILES.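 In this assay, cells in 96-well plates receive the compound at five concentrations for 48 hours. Endpoints are linearly interpolated between the surrounding concentrations. GI50: concentration for 50% inhibition of growth. The concentration for full growth arrest is given as TGI.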

The subject of the assay is NCI-H322M lung. Nature of the assay: NCI tumour cell line growth inhibition, 48 h.
Regarding `CCSC1=N/C(=C\c2ccc(N(C)C)cc2)C(Cl)=N1`, the TGI is above 100 µM.

In the case of `CC(C)=CCc1cc2c(cc1O)OC[C@H]1c3cc4c(cc3O[C@@H]21)OCO4`, the TGI is above 100 µM. With `COC(=O)c1nsc(OC)c1Cl`, the TGI is above 100 µM. For the compound `CC(C)=CCc1cc(O)cc2c1OC(C=C(C)C)C1=C2C(=O)C2=C(C1=O)S(=O)(=O)CCN2` (stereo unspecified), the GI50 was 3.82 µM and the TGI turned out to be 10.4 µM. `Nc1ccn([C@H]2CO[C@@H](CO)[C@@H]2O)c(=O)n1`: the TGI is above 100 µM. On to `CC1(C)N=C(N)N=C(N)N1c1ccc(CCCCc2ccc(Cl)c(S(=O)(=O)F)c2)c(Cl)c1`, for which the GI50 is 5.06 µM and the TGI came to 21.3 µM. Regarding `Cc1nc2ccc(F)cc2c2c1CCN2c1ccc(Cl)cc1`, the TGI turned out to be 46.3 µM. Regarding `CC(C)(C)[Si](C)(C)Oc1ccc(C2CNC(=O)C23CCC(=O)N3Cc2ccccc2)cc1` (stereo unspecified), the TGI amounted to 41.8 µM. Same read-out and setting: next, `COc1ccc(/C(Cl)=C(\C=O)c2ccc(OC)cc2)cc1`: above 100 µM.

As to `O=C(/C=C/C=C/c1ccccc1)c1ccccc1`, the TGI worked out at 41.2 µM.

`CC(=O)c1c(O)ccc2c1c1c(n2C)C(=O)c2ccccc2C1=O` returned a TGI above 100 µM. Consider `COC(=O)C(C(=O)Cc1ccccc1[N+](=O)[O-])C(=O)OC`, for which the TGI is above 100 µM. With `CC(Oc1ccc(Cl)cc1Cl)C(=O)NN1C(=O)CSC1c1ccccc1` (stereo unspecified), the TGI is above 100 µM.

Take `COc1ccc2c(C(=O)c3cn(CCN4CCOCC4)c4ccccc34)cccc2c1`: the TGI was above 75.7 µM. Still for that read-out and setting: next, `CN(C)CCNC(=O)c1cccc2ccc(-c3ccc(F)cc3)nc12`: 22.5 µM.

On to `COC(=O)C1=CN(CC2=CC(=O)C(C)=CC2=O)C=C(C(=O)OC)C1c1cccc(OC)c1`, for which the GI50 is 6.12 µM and the TGI was determined as 13.3 µM. For `CCOC(=O)[C@H](C)OC(=O)[C@@](C)(NC(=O)c1ccccc1C(=O)OC)[C@@H]1NC=C(C(=O)OC)CS1`, the TGI was above 100 µM.

`CCOC(=O)c1c2c(n(Cc3ccccc3)c1C)C(=O)C(=O)c1ccccc1-2` had a TGI of 1.01 µM.

Compound `CCOc1nnnc2nc[nH]c12` registered a TGI above 100 µM.

For `CC(=O)NC1=N/C(=C\c2ccc(Cl)cc2)C(=O)N1/C=C1\C(=O)Oc2ccccc2C1=O`, the TGI was above 100 µM.

Take `O=C(NNc1ccccc1)C(=O)NNc1ccccc1`: the GI50 was above 100 µM and the TGI was above 100 µM. For the compound `CN(C)/N=C1/CCC(C(F)(F)F)(C(F)(F)F)O1`, the TGI is above 100 µM. The same measure, in the same setting: next, `Nc1ccccc1N=Cc1cc2cc([N+](=O)[O-])ccc2s1`: 46.4 µM; `O=C(CSc1c2ccccc2nc2ccccc12)Nc1ccccc1-c1ccccc1NC(=O)CSc1c2ccccc2nc2ccccc12`: above 100 µM; `CCOC(=O)c1sc2c(c1OC(=O)c1ccc(OC)cc1)c(=O)n(-c1ccccc1)c(=S)n2-c1ccccc1`: above 100 µM. For the compound `O=S(=O)(Nc1ccc(Cl)cc1Cl)c1ccc(-c2cnc(C3CC3)o2)cc1`, the GI50 was 5.41 µM and the TGI is above 92.3 µM. Consider `CC1CCN(C(=O)OCc2nc3nc(Cl)nc(N4CCOCC4)c3[nH]2)CC1`, for which the GI50 is 1.52 µM and the TGI was found to be 2.94 µM. Compound `CCc1nc(N)nc(N)c1-c1ccc([N+](C)(C)C)cc1` showed a TGI above 100 µM. On the same count and under the same terms, next, `CC(C)=CCC/C(C)=C/CC/C(C)=C/CC(CO)N(C)CC/C=C(\C)CCC=C(C)C` (stereo unspecified): 18.8 µM; `COC1=C(Br)[C@H](O)[C@@]2(C=C1Br)CC(C(=O)NCCCOc1c(Br)cc(C(O)CNC(C)=O)cc1Br)=NO2` (stereo partly specified): above 10 µM; `COC(=O)C1=C(O)c2ccc(Cl)cc2S(=O)(=O)N1C`: above 100 µM. `Cc1ccc2c(C3C(C#N)=C(N)Oc4cc5ccccc5cc43)cc(=O)oc2c1` (stereo unspecified): the GI50 is 5.49 µM and the TGI was above 100 µM.

Compound `CS(=O)(=O)c1ccc(-c2cc(-c3ccc(S(C)(=O)=O)cc3)[n+](-c3cc(-c4ccccc4)c([O-])c(-c4ccccc4)c3)c(-c3ccc(S(C)(=O)=O)cc3)c2)cc1` showed a TGI above 100 µM.

Consider `CC(=O)OCC1OC(OC2CC3C(C)(C)C(O)CC[C@]3(C)C3CCC45CC4(CCC5[C@@H](C)CC(O)C(O)C(C)(C)O)[C@]23C)C(O)C(O)C1O` (stereo partly specified), for which the TGI was above 10 µM.

`C=CN1C(=O)[C@H](Oc2ccccc2)[C@@H]1c1ccccc1` displayed a TGI above 100 µM. Turning to `CCCCCCCN=C(N)c1ccc(N2CCN(c3ccc(C(N)=NCCCCCCC)cc3)CC2)cc1`, the GI50 was 0.871 µM and the TGI came to 7.92 µM. The corresponding values for `COc1ccc(-c2cc(/C=C/C(=O)c3ccc(OC)c(OC)c3)[nH]n2)cc1` are 1.62 µM and 4.92 µM.

`Cc1ccc(S(=O)OCc2c(C)c(C)c(COS(=O)c3ccc(C)cc3)c(C)c2C)cc1` (stereo unspecified) displayed a TGI above 100 µM. The compound `CC1C=CN(N(C)C)C2=C1C(=O)c1cnccc1C2=O` (stereo unspecified) gave a TGI of 2.21 µM.

`O=C(NNC(=O)c1ccccc1O)c1cccc(Br)c1`: the TGI is above 100 µM.

Consider `NCCCn1c2c(c3ccc([N+](=O)[O-])cc3c1=O)C(=O)c1ccccc1-2`, for which the GI50 was 0.292 µM and the TGI came out at 1.42 µM. The compound `C=CCC1(CN(C)C)CC/C(=C\c2ccc(Cl)cc2)C1=O` (stereo unspecified) came in with a TGI above 100 µM.

The compound `[N-]=[N+]=NCc1nc(N)c2c3c(sc2n1)CCCC3` came in with a TGI of 32.6 µM. As for `CC(=O)N1CCC(=O)/C(=C/c2ccccc2)C1`, the TGI is above 100 µM.

As to `COC(=O)c1ccc(-c2c(C#N)[n+](=O)c3cc(Cl)c(Cl)cc3n2[O-])cc1`, the GI50 is 27.6 µM and the TGI was determined as 73.9 µM.
